Results as given in PMC12040169 (PLOS Biology, 2025).
The list shows a part of the results.

Test system: T1, C. trachomatis L2/434/Bu expressing GFP (CTL2-GFP)
T1 construct: L2/434/Bu GFP intracellular growth in HeLa cells
Parameters: species or system HeLa; C. trachomatis total inclusion area by high-content imaging, normalised to DMSO
Conditions: total inclusion area; 28.5 h, 10 µM; inhibitor
Procedure, shortened: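 Imaging read-out: GFP inclusions and Hoechst nuclei captured by high-content imaging after fixation. Inclusion area/number = chlamydial growth; nuclei count = host cell viability. MIC calculated per earlier method.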

Structure (SMILES) | % of control remaining
CN(CC(=O)O)S(=O)(=O)c1cccc2cccc(Cl)c12 [CBK268433] | 95.4192
CN(c1cc(F)ccc1[N+](=O)[O-])S(C)(=O)=O [CBK001365] | 93.5518
c1ccc(CCN2CCC(c3nc(-c4ccccc4)no3)CC2)cc1 [CBK051454] | 83.7104
CC(=O)Nc1ccc(NC(=O)CSCC(=O)O)cc1 [CBK226269] | 86.11
N#Cc1ccc(CNC(=O)N2CCc3ccccc3C2)cc1 [CBK155287] | 110.122
Cc1c(NCc2ccc3c(c2)n(C)c(=O)n3C)cccc1C(=O)O [CBK287237] | 103.274
COCCOCN1C(=O)CC2(C1=O)C(=O)N(Cc1ccc(OC(F)(F)F)cc1)c1ccccc12 (stereo not shown) [CBK075942] | 115.873
CC(=O)O/C(N)=N/c1nonc1N [CBK021885] | 56.0635
COc1ccc(CN[C@H]2[C@H](O)[C@@H](N3CCCC3)[C@@H]3OC[C@H]2O3)cc1 [CBK288827] | 120.13
COc1cc(CNCc2ccco2)ccc1OCC(N)=O [CBK270204C] | 107.571
Cn1nc(-c2ccc(S(=O)(=O)Nc3ccc4cn[nH]c4c3)s2)cc1C(F)(F)F [CBK067156] | 92.536
CCCC/C=C/c1cn2ccnc2c(N2CCN(c3ccccn3)CC2)n1 [CBK066224] | 120.599
Cc1nc(S(=O)(=O)Nc2ccc3[nH]ccc3c2)cn1C [CBK156800] | 89.1895
O=C(O)C1CCCN(C(=O)Cn2ccc3ccc(OCc4ccccc4)cc32)C1 (stereo not shown) [CBK286814] | 103.711
Cc1cc(C)c2oc(-c3ccc(Cl)c(NC(=O)Cc4ccc(Cl)cc4)c3)nc2c1 [CBK264695] | 100.239
COc1ccc(C(C)C)cc1-c1cnc(N)c(Nc2ccc3[nH]ccc3c2)n1 [CBK063827] | 164.283
COc1nccnc1OC1CCN(CC(N)=O)CC1 [CBK084248] | 95.4608
OCC1CCCN1c1cc(Cl)nc2ccnn12 (stereo not shown) [CBK037011] | 62.7579
CC(=O)NCC(=O)N(c1ccccc1)C1(C(=O)NC(c2ccccc2)c2ccccc2)CCCC1 [CBK100884] | 106.152
O=S(=O)(NCc1nc2ccccc2[nH]1)c1ccc(Cl)c(Cl)c1 [CBK261137] | 93.2672

Structure (SMILES) | % of control remaining
CC(CCc1ccc(F)cc1)NC(=O)c1cc2c([nH]c1=O)CCC2 (stereo not shown) [CBK281512] | 82.5999
COc1cc(/C=C2\SC(=N)NC2=O)ccc1OCC(=O)O [CBK262675] | 100.407
CN(C)CCN1C(=O)C(O)=C(C(=O)c2cccs2)C1c1ccc([N+](=O)[O-])cc1 (stereo not shown) [CBK264584] | 109.17
CCN(CC(=O)NCc1ccc(F)cc1)S(=O)(=O)c1ccc(Cl)s1 [CBK305837] | 57.431
CC(Cc1nc(C2CC2)cs1)n1cc(Cl)cn1 (stereo not shown) [CBK304707] | 52.5512
O=C(CSc1ccccc1)Nc1cccc(Oc2ccc3c(c2)C(=O)NC3=O)c1 [CBK266500] | 109.623
C[C@@H]1CNCCN1c1nccnc1OCCOc1cccnc1OCCN [CBK040757T] | 91.1956
CC(C)[C@H]1SC(NC[C@H](C)c2ccccc2)=NC1=O [CBK074034] | 36.1211
CN(C)CCN(C)c1cccc(-c2ccc(CCC(=O)O)cc2)n1 [CBK036983] | 128.089
CC(C)n1cc(C(=O)N2CCCC2c2nc3ccccc3[nH]2)cn1 (stereo not shown) [CBK284667] | 106.505
O=c1[nH]nc(-c2cccs2)n1-c1cccnc1 [CBK283854] | 51.4031
CN(C)CCNC(=O)c1ccc(-c2cnc(OCC3CCN(C(=O)OC(C)(C)C)CC3)nc2)cc1 [CBK167544] | 114.907
O=c1c2c(nc(NCCO)n1-c1ccccc1)-c1ccccc1CC21CCCCC1 [CBK262589] | 102.084
CC1=CC(=O)OC1(O)c1ccc(Br)cc1 (stereo not shown) [CBK022687] | 83.6241
Cc1nn(CC(=O)N2CCCC(C)C2)c(=O)c2cc3sccc3n12 (stereo not shown) [CBK284046] | 84.0261
Cc1ccnc2c1C(=O)C1(CC2)CCN(S(=O)(=O)c2c(C)noc2C)CC1 [CBK059557T] | 70.7341
COc1cc(NS(=O)(=O)c2ccc(NC(=O)c3ccc(C)o3)cc2)nc(OC)n1 [CBK268182] | 96.0964
Cc1cc(-c2ccc(/N=C/c3cccc(O)c3O)c(C)c2)ccc1/N=C/c1cccc(O)c1O [CBK261613] | 93.5226
C#CCNC(=O)[C@H]1O[C@H](CCN2CCCCC2)CC[C@@H]1O [CBK288728] | 111.134
CCCN1CC(NS(=O)(=O)c2cc(OC)c(Cl)cc2OC)CC1=O (stereo not shown) [CBK307581] | 97.3163
